Measurements taken from PubChem BioAssay AID504332 (National Center for Advancing Translational Sciences (NCATS), 2011).
Values joined by “and” are separate entries in the source; they are usually repeats but may differ in a detail not shown here. Identical values can stand only once. About 31,000 (8.9%) of roughly 350,000 compounds were called active. Inconclusive means that the source gave no clear call. Such entries were picked first, then a sample of the others. The call rests on the fitted dose curve; in most records, active means well fitted inhibition curve with a large enough effect; inconclusive means small, poorly fitted or top-dose-only effect; inactive means no such curve, though single readings can be large or run the other way. Where the call is inconclusive, the potency comes from a doubtful curve fit. The source holds several records for some structures; these can differ, active in one and inactive in another.

molecular target: Histone-lysine N-methyltransferase EHMT2 (Homo sapiens) (UniProt Q96KQ7); experiment: qHTS Assay for Inhibitors of Histone Lysine Methyltransferase G9a; conditions: G9a H3K9 monomethylation, AlphaScreen, 2 h; activity, negative = inhibition: at 59 µM (top of the series) unless noted; further: nearly all actives have a fitted effect of over 75% in size
UniProt Q96KQ7, sequence (Q96KQ7 whole entry, looked up): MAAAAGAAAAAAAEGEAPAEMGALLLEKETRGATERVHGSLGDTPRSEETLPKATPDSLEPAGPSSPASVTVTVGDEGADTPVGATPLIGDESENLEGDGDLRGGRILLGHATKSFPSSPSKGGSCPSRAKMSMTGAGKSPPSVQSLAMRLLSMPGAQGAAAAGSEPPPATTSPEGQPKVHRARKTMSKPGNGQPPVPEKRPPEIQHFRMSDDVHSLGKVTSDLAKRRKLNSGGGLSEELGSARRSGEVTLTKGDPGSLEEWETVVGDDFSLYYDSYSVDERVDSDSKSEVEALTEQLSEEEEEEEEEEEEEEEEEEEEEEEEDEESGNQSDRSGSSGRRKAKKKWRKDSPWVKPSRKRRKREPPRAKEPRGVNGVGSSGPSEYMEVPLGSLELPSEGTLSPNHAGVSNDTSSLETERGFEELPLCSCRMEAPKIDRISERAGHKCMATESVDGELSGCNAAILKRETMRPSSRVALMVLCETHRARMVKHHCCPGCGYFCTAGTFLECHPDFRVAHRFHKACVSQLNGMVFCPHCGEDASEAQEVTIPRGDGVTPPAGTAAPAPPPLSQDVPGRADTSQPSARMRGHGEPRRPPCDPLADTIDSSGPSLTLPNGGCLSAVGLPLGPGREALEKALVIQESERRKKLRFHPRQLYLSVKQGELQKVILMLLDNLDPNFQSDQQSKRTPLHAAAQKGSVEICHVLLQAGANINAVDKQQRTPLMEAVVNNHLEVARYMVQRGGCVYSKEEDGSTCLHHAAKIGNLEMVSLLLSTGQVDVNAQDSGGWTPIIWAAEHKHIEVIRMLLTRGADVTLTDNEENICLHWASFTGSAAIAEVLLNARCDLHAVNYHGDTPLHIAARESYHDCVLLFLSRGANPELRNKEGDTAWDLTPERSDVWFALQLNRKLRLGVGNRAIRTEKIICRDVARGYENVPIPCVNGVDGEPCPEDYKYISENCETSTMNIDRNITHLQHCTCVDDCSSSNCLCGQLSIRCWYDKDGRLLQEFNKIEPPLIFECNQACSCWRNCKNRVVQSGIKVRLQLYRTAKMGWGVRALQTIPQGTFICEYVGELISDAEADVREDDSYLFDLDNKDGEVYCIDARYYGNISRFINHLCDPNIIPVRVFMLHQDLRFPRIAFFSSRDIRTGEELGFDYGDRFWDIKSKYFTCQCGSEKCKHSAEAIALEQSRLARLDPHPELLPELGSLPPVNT
In short: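 Enzyme 20 nM + cpd, 15 min RT; add b-H3K9 pep 500 nM / SAM 20 uM; 2 h RT; anti-H3K9me1 Ab 0.5 ug/mL + SA donor / anti-rabbit acceptor beads 20 ug/mL each, 10 min; AlphaScreen read.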
On the % scale 0 is the no-effect control and ±100 the full control effect; potency means the concentration at half of the fitted maximal effect; tags describe the fitted curve by direction and shape.

SMILES | Potency | activity, negative = inhibition
Cc1sc(NC(=O)c2cc3ccccc3oc2=O)c(C(=O)OC(C)C)c1-c1ccccc1 | inconclusive: 1.78 µM [inhibitor, partial curve, poor fit] | –
Cc1cc(C)n(-c2cc(N3CCN(C(=O)c4cccc(Br)c4)CC3)ccc2[N+](=O)[O-])n1 | inconclusive: 31.6 µM [inhibitor, single point] | –
O=C(O)CCc1ccc(-c2ccc(Cl)cc2)o1 | active: 3.98 µM | –
CC1CCCCN1CCCNc1c(C=O)c(=O)[nH]c2ccccc12 (configuration not stated) | inconclusive: 31.6 µM [inhibitor, single point] | –
CN(CC(=O)NCc1ccc(F)cc1)S(=O)(=O)c1ccc2[nH]c3c(c2c1)CCCC3 | active: 15.8 µM | –
Cc1c(NC(=S)NC(=O)Cc2ccccc2)cccc1C(=O)O | inconclusive: 50.1 µM [inhibitor, partial curve, poor fit] | –
Nc1nc(N2CCN(C(=O)c3ccco3)CC2)nc2ccc(Br)cc12 | active: 50.1 µM | –
COc1ccc(-c2ccc(-c3noc(C(C)C)n3)c(OC)n2)cc1 | – | inactive: 28.8%
CC1CC(OCC(O)CN2CCN(Cc3ccccc3)CC2)CC(C)(C)C1 (configuration not stated) | inconclusive: 39.8 µM [inhibitor, single point] | –
CCOC(=O)CSC1=C(C#N)C(=O)NC(c2ccc(OC)cc2)S1 (configuration not stated) | inconclusive: 28.2 µM [inhibitor, single point] | –
Cc1ccc(C(=O)O)cc1NC(=S)NC(=O)Cc1ccccc1 | – | inactive: -7.02% [at 102 µM]
COc1ccc(-c2c(C)nn3c(C(F)(F)F)cc(-c4ccccc4)nc23)cc1OC | inconclusive: 2 µM [inhibitor, partial curve, poor fit] | –
CCn1c(SCC(=O)c2ccc(Cl)s2)nnc1-c1cccs1 | inconclusive: 79.4 µM [inhibitor, single point] | –
Cc1ccc(C2NC(=O)NC(O)(C(F)(F)F)C2C(=O)c2ccccc2)o1 (configuration not stated) | inconclusive: 39.8 µM [inhibitor, single point] | –
CC(=O)NC(=S)Nc1sc2c(c1C#N)CCCCC2 | active: 44.7 µM | –
O=C(c1ccc2c(c1)N(Cc1cccc(F)c1)C(=O)c1ccccc1S2)N1CCC2(CC1)OCCO2 | inconclusive: 39.8 µM [inhibitor, single point] | –
Cc1c(Cl)cccc1NC(c1ccc(F)cc1)c1nnc(-c2ccccc2)o1 (configuration not stated) | – | inactive: 20.3%
COc1ccc(C2=C(N3CCN(c4cc(C)ccc4C)CC3)c3ccccc3C2=O)cc1 | active: 5.01 µM | –
CCc1ccc(-n2c(=O)c3sc4ccccc4c3n(CC(=O)NCc3ccccc3)c2=O)cc1 | – | inactive: 10%
COc1ccccc1N(CC(=O)NC1CCCC1)C(=O)CCC(=O)Nc1ccccn1 | – | inactive: 20.4%
CCN(C(=O)CSc1nnc2c3ccccc3n(CC)c2n1)C1CCS(=O)(=O)C1 (configuration not stated) | active: 79.4 µM | –
CC(=O)Nc1nnc(SCC(=O)NCC2CCCO2)s1 (configuration not stated) | inconclusive: 31.6 µM [inhibitor, single point] | –
FC(F)(F)COc1nc(OCC(F)(F)F)nc(N2CCN(c3ccccc3)CC2)n1 | inconclusive: 89.1 µM [inhibitor, partial curve, poor fit] | –
O=C(O)c1cccc(NC(=S)NC(=O)c2ccc(-c3ccc(Cl)cc3)o2)c1 | active: 44.7 µM | –

SMILES | Potency | activity, negative = inhibition
CCOC(=O)c1c(NC(=O)c2ccco2)sc2c1CCCC2 | – | inactive: 7.35%
Cc1ccc(C(=O)NCc2ccco2)cc1S(=O)(=O)N1CCCCC1 | inconclusive: 22.4 µM [inhibitor, single point] | –
CCOC(=O)C1=C(C)N(c2ccc(OC)cc2)C(=O)/C1=C\c1ccc(O)c(OCC)c1 | inconclusive: 31.6 µM [inhibitor, full curve, poor fit] | –
CS(=O)(=O)Nc1ccc([N+](=O)[O-])cc1Oc1ccccc1 | inactive and active: 31.6 µM | –
O=C(CNCC1CCCCC1)Nc1ccccc1N1CCCCC1 | inconclusive: 7.94 µM [inhibitor, full curve, poor fit] | –
c1ccc(-c2ccccc2OCCn2cncn2)cc1 | inconclusive: 100 µM [inhibitor, single point] | –
Cc1ccccc1N1C(=O)C2ON(c3ccccc3)C(c3ccncc3)C2C1=O (configuration not stated) | active: 44.7 µM | –
Fc1ccc(C(NCCc2ccccc2)c2nnc(-c3ccccc3Cl)o2)cc1 (configuration not stated) | – | inactive: 118%
O=S(=O)(Cc1ccccc1)N1CCCCC1 | inconclusive: 31.6 µM [inhibitor, single point] | –
Cc1ccc(NCc2ccccc2F)cc1 | inconclusive: 39.8 µM [inhibitor, single point] | –
CCOC(=O)c1c(S(=O)(=O)N2CCC(C(=O)N3CCN(c4ccccc4F)CC3)CC2)c(C)n(C)c1C | – | inactive: 9.2%
Cc1ccc(S(=O)(=O)N2CCCC2C(=O)OCc2ccco2)cc1 (configuration not stated) | – | inconclusive: -85.3% [inhibitor]
CCn1cc(C(=O)O)c(=O)c2cc(F)c(N3CCNC(C)C3)c(F)c21 (configuration not stated) | active: 11.2 µM | –
CNC(=O)c1cccc(NC(=O)CCCNC(=O)c2ccc(Cl)cc2)c1 | inconclusive: 89.1 µM [inhibitor, single point] | –
COc1cc(Cl)c(C)cc1NC(=O)CCc1nc2cccnc2n1Cc1cccs1 | – | inactive: -19.7%
COC(=O)Cn1c(=O)c2c(nc3n2CCCN3CCc2ccc(OC)c(OC)c2)n(C)c1=O | – | inactive: 2.17% [at 102 µM]
CCN(CC)CCCNC(=O)c1ccc(Cn2c(=O)[nH]c3cc(OC)c(OC)cc3c2=O)cc1 | inconclusive: 20 µM [inhibitor, partial curve, poor fit] | –
CCc1ccc(OCc2nnc(SCCN3CCOCC3)n2C)cc1 | active: 3.16 µM | –
O=C(N/N=C/c1ccccc1[N+](=O)[O-])C(=O)N1CCCC1 | inconclusive: 89.1 µM [inhibitor, partial curve, poor fit] | –
COc1cc(/C=C/C(=O)OCC(=O)NCCc2ccc(S(N)(=O)=O)cc2)ccc1OCC#N | – | inactive: -30.6% [at 102 µM]
CN1CCN(NC(=O)c2ccc(Cl)s2)CC1 | – | inactive: -29.5% [at 102 µM]
Nc1nc(CSc2ncn(-c3ccccc3)n2)cs1 | inconclusive: 8.91 µM [inhibitor, single point] | –
Nc1ccc(C(=O)Nc2ccc(OC(F)(F)C(F)F)c(NC(=O)c3ccc(N)cc3)c2)cc1 | inconclusive: 79.4 µM [inhibitor, single point] | –
